# Source: PubChem BioAssay AID485344 (National Center for Advancing Translational Sciences (NCATS), 2010)
# The campaign covered roughly 340,000 compounds. About 6,900 (2%) were called active. No stated cut-off is given here; in the data, active means inhibition above about 30%; inactive means below that, where a call was filed. The list shows a part of the results, in another mix than the full data. Where no call is shown, the source filed none.
# Molecular target: D(2) dopamine receptor (Homo sapiens) (UniProt P14416)
# Experiment: HTS Assay for Allosteric Antagonists of the Human D2 Dopamine Receptor: Primary Screen for Antagonists; further: 0% is about no effect
# Conditions: HEK293 TREx D2 cells, calcium flux, dopamine EC80; at 10 µM; stronger effect = higher value
# How it was run: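 Calcium flux kinetic readout in an inducible HEK293 TREx D2 line plated overnight at 30 C. After 180 s compound exposure, an EC80 dopamine challenge follows with another 180 s kinetic read to detect antagonism.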
# Chain of UniProt P14416 (P14416 whole entry, looked up): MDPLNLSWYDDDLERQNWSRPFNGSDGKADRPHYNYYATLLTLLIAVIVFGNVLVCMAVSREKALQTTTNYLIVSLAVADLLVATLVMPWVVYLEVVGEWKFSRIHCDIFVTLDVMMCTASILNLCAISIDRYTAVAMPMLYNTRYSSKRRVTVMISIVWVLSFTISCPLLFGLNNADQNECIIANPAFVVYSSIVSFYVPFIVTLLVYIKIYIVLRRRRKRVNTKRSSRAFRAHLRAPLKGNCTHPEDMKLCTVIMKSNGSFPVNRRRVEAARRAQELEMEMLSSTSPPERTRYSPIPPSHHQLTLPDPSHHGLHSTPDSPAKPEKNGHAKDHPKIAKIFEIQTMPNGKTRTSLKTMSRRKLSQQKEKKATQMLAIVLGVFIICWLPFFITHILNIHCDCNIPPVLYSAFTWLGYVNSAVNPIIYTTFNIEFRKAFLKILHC
row,SMILES,inhibition
1,Cc1cccc(C)c1OCc1cc(=O)n2c3c(sc2n1)CCCC3,-10.2%
2,Cc1ccc(C(=O)COC(=O)C(Cc2c[nH]c3ccccc23)NC(=O)c2ccc(C(C)(C)C)cc2)cc1 (configuration not stated),8.04%
3,CCOC(=O)C(C)Sc1nc(-c2ccccc2Cl)cc(-c2ccccc2)c1C#N (configuration not stated),-0.896%
4,Cc1cc(C)cc(NC(=O)CSc2nc(=O)n(Cc3ccccn3)c3c2CCC3)c1,-19.3%
5,CCN(c1ccccc1)S(=O)(=O)c1ccc(-c2cc(C)no2)s1,7.91%
6,Cc1ccc2[nH]c(=O)c(CN(C(=O)c3cccc(Cl)c3)C(C)(C)C)cc2c1,-4.24%
7,Cc1ccccc1C(=O)Nc1cccc(C(=O)OCc2cc(=O)n3ccsc3n2)c1,-1.32%
8,Cc1ccc(NC(=O)c2ccc(CN3CC(=O)N4CCCCC4C3=O)cc2)cc1 (configuration not stated),-12.3%
9,COc1ccc(OC)c(CNC(=O)c2cnc3c(C)cccn3c2=O)c1,-17.6%
10,CCc1cccc(NC(=O)Cn2c(=O)n(-c3cccc(Cl)c3)c(=O)c3c2c2cc(C)ccc2n3C)c1,-7.95%
11,Cn1c(SCC(=O)N2CCCc3ccccc32)ncc(C(=O)Nc2ccccc2)c1=O,14.7%
12,CCc1nn2c(=O)cc(COC(=O)c3ccc(NC(=O)COc4ccc(C)cc4)cc3)nc2s1,6.81%
13,CC1=C(C(=O)Nc2ccc(C)cc2C)C(c2ccc(C(=O)O)cc2)n2nc(SCc3ccccc3)nc2N1 (configuration not stated),5.71%
14,CCOc1ccc(CNC(=O)CC(C)n2nc(C)cc2C)cc1OC (configuration not stated),-8.15%
15,Cc1ccc2c(c1)c1c(c(=O)n(-c3ccccc3)c(=O)n1CC(=O)c1ccc(F)cc1)n2C,1.88%
16,COc1cc(OC)c(N(C)C(=O)c2cn(C3CCCC3)c(=O)c3c2c2ccccc2n3C)cc1Cl,4.03%
17,Cc1ccccc1C(=O)OCc1cc(=O)n2nc(C(C)C)sc2n1,1.95%
18,CCN1CCN(C(c2ccc(C)cc2)c2c(O)cc(C)n(Cc3ccco3)c2=O)CC1 (configuration not stated),-4.94%
19,CN(Cc1ccccc1)S(=O)(=O)c1ccc2[nH]c3c(c2c1)CCCCC3,-0.853%
20,Cc1ccc(N2CCN(C(=O)c3cnn(-c4ccc(F)cc4F)c3C3CCN(C(=O)OC(C)(C)C)CC3)CC2)c(C)c1,8.64%
21,COc1ccc(-n2nc(C(=O)O)c(=O)n(C)c2=O)cc1,16%
22,CC(=O)c1cccc(NC(=O)Nc2nnc(N3CCCC3)s2)c1,7.28%
23,CC(=O)c1cc(-c2ccc(F)cc2)n(CC(=O)NC2CCC(C)CC2)c1C (configuration not stated),10.8%
24,CCOC(=O)c1c(C)n(-c2ccccc2)c2ccc(OC(=O)c3cccc(C)c3)cc12,9.69%

row,SMILES,inhibition
1,COc1cccc(CNC(=O)c2ccc3c(=O)n4nc(Nc5ccccc5)sc4nc3c2)c1,-16.6%
2,CCCOc1ccc(CNC(=O)c2ccc(C)c(-n3c(C)nc4cccnc43)c2)cc1,6.18%
3,Cc1oc2ncn(C)c(=O)c2c1C(=O)NCCCN1CCCCC1C (configuration not stated),0.493%
4,O=C(Nc1cccc(C(F)(F)F)c1)N1CC2CCCN2c2ccccc21 (configuration not stated),4.42%
5,Cc1cccc(NC(=O)Cn2nc3c4ccccc4n(Cc4ccccc4)cc-3c2=O)c1,3.16%
6,COc1ccc(-n2nc(C(=O)Nc3ccc(Cl)cn3)c3c4ccccc4n(C)c3c2=O)cc1,-4.25%
7,CCN(CC)C(=O)N1CCN(C)CC1,active: 32.5%
8,COc1ccc2cc(-c3nnc(Nc4ccccc4)s3)c(=O)oc2c1,2.15%
9,CCCCN(CCCC)CCNC(=O)CN1C(=O)CSc2ccc(S(=O)(=O)N3CCOCC3)cc21,-7.02%
10,COc1ccc(NC(=O)c2c(C)oc3ccc(O)c(CN4CCN(Cc5ccccc5)CC4)c23)cc1Cl,10.3%
11,COc1ccc(C(CNC(=O)c2cccc(Br)c2)N2CCCC2)cc1 (configuration not stated),active: 40.9%
12,COc1ccc(-c2cc3nc(C)c(CCC(=O)N4CCN(c5ccc(F)cc5)CC4)c(C)n3n2)c(OC)c1,9.32%
13,Cc1ccc(Nc2nc3ccccc3c3nnc(C)n23)c(C)c1,-3.06%
14,CC(C)c1nnc(NC(=O)C2CCCN2C(=O)Nc2ccccc2F)s1 (configuration not stated),active: 38%
15,CCOC(=O)CN(Cc1ccccc1)C(C(=O)NC1CCCCC1)c1ccc(OC)cc1 (configuration not stated),16.3%
16,CC(=O)c1cccc(NC(=O)C(CC(C)C)NS(=O)(=O)c2ccc3c(c2)CCN3C(C)=O)c1 (configuration not stated),-16.7%
17,COc1ccc(Cl)cc1NC(=O)c1ccc2c(c1)CCN2S(C)(=O)=O,23.6%
18,CCOc1cc(C(=O)Nc2cccc3cccnc23)cc(OCC)c1OCC,-3.72%
19,Cc1cc(NC(=O)CSc2nc(-c3ccccc3C)nc3c2c(=O)n(C)c(=O)n3C)no1,11.1%
20,COc1cccc(Nc2sc(C(=O)c3ccc(Cl)cc3)c(N)c2C(=O)NCc2ccc(C)cc2)c1,-26%
21,O=C(NCCc1ccccc1)c1ccc2c(c1)N(Cc1ccccc1)C(=O)c1ccccc1S2(=O)=O,10.5%
22,COc1ccc(CNC(=O)c2cc(=O)[nH]c3ccc(S(=O)(=O)N4CCCC4)cc23)c(OC)c1,-2.28%
23,NS(=O)(=O)c1ccc(CCNc2ncnc3c2cnn3-c2cccc(Cl)c2)cc1,5.78%
